Molecules are shown by their SMILES. The campaign covered roughly 310,000 compounds. About 14,000 (4.5%) showed an effect of 50% or more. The effect is printed as a negative number. This is one part of the list.
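Further: peak tail current of the secondary pulse compared with the same well before compound.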

The target in the test is human ether-à-go-go-related gene (hERG) potassium channel (human, UniProt Q12809). As to the kind of experiment: primary screen, population patch clamp on CHO cells stably expressing hERG.
Chain of human ether-à-go-go-related gene (hERG) potassium channel (Q12809 whole entry, looked up): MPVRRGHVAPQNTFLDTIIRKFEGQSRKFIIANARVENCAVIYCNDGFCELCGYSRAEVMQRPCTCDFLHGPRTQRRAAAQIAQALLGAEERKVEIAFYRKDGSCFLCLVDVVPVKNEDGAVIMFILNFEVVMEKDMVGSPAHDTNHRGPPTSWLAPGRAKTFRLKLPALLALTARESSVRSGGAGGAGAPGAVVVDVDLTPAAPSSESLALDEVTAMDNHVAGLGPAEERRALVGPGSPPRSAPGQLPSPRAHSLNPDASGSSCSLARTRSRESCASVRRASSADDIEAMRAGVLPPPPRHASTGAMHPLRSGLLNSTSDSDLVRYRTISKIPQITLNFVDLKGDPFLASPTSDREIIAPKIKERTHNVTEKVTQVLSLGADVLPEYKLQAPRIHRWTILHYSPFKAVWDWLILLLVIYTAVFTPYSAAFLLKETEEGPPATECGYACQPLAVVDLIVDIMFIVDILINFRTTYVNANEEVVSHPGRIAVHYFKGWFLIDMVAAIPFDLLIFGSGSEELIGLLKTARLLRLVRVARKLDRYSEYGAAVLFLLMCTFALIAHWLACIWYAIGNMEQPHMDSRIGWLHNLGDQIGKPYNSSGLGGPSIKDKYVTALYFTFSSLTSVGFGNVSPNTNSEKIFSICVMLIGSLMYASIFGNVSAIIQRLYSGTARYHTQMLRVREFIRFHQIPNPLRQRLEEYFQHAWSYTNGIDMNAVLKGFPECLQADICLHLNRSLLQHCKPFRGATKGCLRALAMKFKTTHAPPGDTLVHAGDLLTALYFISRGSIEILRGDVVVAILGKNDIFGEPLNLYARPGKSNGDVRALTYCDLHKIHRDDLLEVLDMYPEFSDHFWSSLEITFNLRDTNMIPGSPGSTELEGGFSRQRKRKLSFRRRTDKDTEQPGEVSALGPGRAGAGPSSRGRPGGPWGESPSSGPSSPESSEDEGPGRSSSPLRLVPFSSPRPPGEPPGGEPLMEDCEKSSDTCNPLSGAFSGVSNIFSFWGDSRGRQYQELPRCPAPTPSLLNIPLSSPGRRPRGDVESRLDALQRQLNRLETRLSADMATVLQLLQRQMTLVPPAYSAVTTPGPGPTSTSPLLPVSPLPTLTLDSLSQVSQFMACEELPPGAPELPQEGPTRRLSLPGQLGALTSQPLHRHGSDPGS
`O=C(CCc1nnc(Cc2cccc(C(F)(F)F)c2)o1)NCC(F)(F)F`: the “hERG current change (%, negative = inhibition) at 10uM” value is reported as -6.02%.
Consider `OCCOCCn1c(CCNc2nc(-c3ccc(F)cc3)cs2)nc2cc(C(F)(F)F)ccc21`, for which the “hERG current change (%, negative = inhibition) at 10uM” value is recorded as -61.1%.
Turning to `O=c1cc(CN2CCCCCC2)nc2sccn12`, the “hERG current change (%, negative = inhibition) at 10uM” value is listed as -13.3%.
Next, `O=C(NCCN1CCOCC1)c1cccc(S(=O)(=O)NCc2ccccc2)c1`: -18.4%; `O=C(CNS(=O)(=O)c1ccc(Br)cc1)NCc1cccnc1`: 0.275%; `CCN1CCN(C(=O)c2cc(S(=O)(=O)N3CCCCC3)ccc2Cl)CC1`: 8.18%.
For `COc1ccc(C(=O)Nc2cccc(C)c2)cc1S(=O)(=O)N1CCOCC1`, the “hERG current change (%, negative = inhibition) at 10uM” value is -16%.
As for `COc1cccc(C2CC(C(F)(F)F)n3nc(C(=O)NCc4cccnc4)cc3N2)c1` (stereo not shown), the “hERG current change (%, negative = inhibition) at 10uM” value is -21.1%.
In the case of `COc1cc2c(cc1OC)C(C(=O)Nc1ccc3c(c1)OCCO3)C1c3ccccc3CCN1C2=O` (stereo not shown), the “hERG current change (%, negative = inhibition) at 10uM” value is -9.15%.
With `COc1ccccc1OCC(O)Cn1c(=N)n(CCN2CCCCC2)c2ccccc21.Cl` (stereo not shown) the figure was -65.4%.
With `OC(Cn1c2ccccc2c2ccccc21)C[n+]1cccc2ccccc21.[O-][Cl+3]([O-])([O-])[O-]` (stereo not shown) the figure was -33.5%; with `CSCCC(C(=O)OCC(=O)c1ccc(C)c(C)c1)N1C(=O)c2cc(Cl)c(Cl)cc2C1=O` (stereo not shown), 3.62%.
Take `O=C(Nc1nc2ccccc2n1CCN1CCCCC1)C1CCCCC1`: the “hERG current change (%, negative = inhibition) at 10uM” value was -61.2%.
On to `COc1ccc(NS(=O)(=O)c2cc3c(cc2C)N(C)CCO3)c(OC)c1`, for which the “hERG current change (%, negative = inhibition) at 10uM” value is given as 1.28%.
For `Cc1nn(C)c(C)c1NC(=O)CSc1nc(-c2ccccc2Cl)nc2c1cnn2-c1ccccc1`, the “hERG current change (%, negative = inhibition) at 10uM” value was -0.273%.
As for `COc1ccc(CCNC(=O)c2c(C)nc3ccccn23)cc1OC`, the “hERG current change (%, negative = inhibition) at 10uM” value is recorded as -64.3%.
As to `Cn1nc(C(=O)Nc2ccc3c(c2)OCO3)c2ccccc2c1=O`, the “hERG current change (%, negative = inhibition) at 10uM” value was found to be 7.17%.
As for `Cc1ccc(C2=Nc3ccccc3N=C(c3ccco3)C2)c(O)c1`, the “hERG current change (%, negative = inhibition) at 10uM” value is 11%.
Regarding `Nc1cccnc1S(=O)(=O)c1ccccc1`, the “hERG current change (%, negative = inhibition) at 10uM” value was 13.8%.
With `COc1ccc(OC)c(NC(=O)c2cnn(-c3ccccc3)c2C)c1` the figure was 2.89%.
Take `CCOC(=O)N1CCN(C(=O)CN(Cc2ccccc2)S(C)(=O)=O)CC1`: the “hERG current change (%, negative = inhibition) at 10uM” value is recorded as 3.92%.
`O=C(CCC(=O)N1C[C@H]2C[C@@H](C1)c1cccc(=O)n1C2)NCc1ccc(F)cc1`: the “hERG current change (%, negative = inhibition) at 10uM” value came to 13.5%.
`Cc1ccccc1SCCNC(=O)c1ccccc1Br`: the “hERG current change (%, negative = inhibition) at 10uM” value is -6.53%.
As for `Cc1ccc(C2C(N)C(=O)N2c2ccc(C)cc2)cc1` (stereo not shown), the “hERG current change (%, negative = inhibition) at 10uM” value is -5.54%.
As to `COc1ccccc1NC(=O)Cn1cnc2c(cnn2-c2ccc(C)c(C)c2)c1=O`, the “hERG current change (%, negative = inhibition) at 10uM” value worked out at 12.1%.
Take `Cc1cc(C)nc(N2CCCC(C(=O)NCc3ccccc3)C2)n1` (stereo not shown): the “hERG current change (%, negative = inhibition) at 10uM” value is 7.35%.
With `Cc1cccc(N2CCN(C(=S)Nc3ccc4nc(N5CCOCC5)cc(C)c4c3)CC2C)c1` (stereo not shown), the “hERG current change (%, negative = inhibition) at 10uM” value was 3.34%.
`CCc1nc(Sc2nnnn2-c2ccccc2)c2c3c(sc2n1)CCCC3`: the “hERG current change (%, negative = inhibition) at 10uM” value was -13.8%.
For the molecule `CNc1nc(Cl)c(SC)c(NCc2ccc(F)cc2)n1`, the “hERG current change (%, negative = inhibition) at 10uM” value amounted to 12.8%.
Regarding `OC1COC(O)C(O)C1O` (stereo not shown), the “hERG current change (%, negative = inhibition) at 10uM” value is recorded as 4.35%.
As to `COc1ccccc1CCNC(=O)C(=O)NCC1OCCN1S(=O)(=O)c1cc(F)ccc1F` (stereo not shown), the “hERG current change (%, negative = inhibition) at 10uM” value is recorded as -14.6%.
In the case of `C=CCn1c(COc2cccc(C)c2)nnc1SCC(=O)NC(=O)NCc1ccco1`, the “hERG current change (%, negative = inhibition) at 10uM” value is given as 12.1%.
Turning to `O=C(O)C1CCCCC1C(=O)Nc1ccccc1Cl` (stereo not shown), the “hERG current change (%, negative = inhibition) at 10uM” value is listed as 15.1%.
`CC1CCCC(NC(=O)CN2C(=O)c3cccnc3Oc3ccc(Cl)cc32)C1C` (stereo not shown): the “hERG current change (%, negative = inhibition) at 10uM” value was -4.33%.
As for `CCc1ccc[n+](-c2[nH]c(=O)sc2/C=N/N=C(\[O-])CCn2c3ccccc3c3ccccc32)c1`, the “hERG current change (%, negative = inhibition) at 10uM” value is reported as 14.9%.
With `Cc1nc(C(=O)NC2CCOCC2)sc1C1(C)CC(c2cccc([N+](=O)[O-])c2)=NO1` (stereo not shown) the figure was -23.3%; with `NS(=O)(=O)c1ccc(NC(=O)/C=C/c2cccc(Cl)c2)cc1`, 0.282%.
For the molecule `CCOC(=O)C1=C(C)N(CCCC(=O)O)C(=O)NC1c1ccc([N+](=O)[O-])cc1` (stereo not shown), the “hERG current change (%, negative = inhibition) at 10uM” value is given as 12.5%.
`COC(=O)C1=C(c2cccc(OCc3ccccc3)c2)C[C@@H]2CC[C@H]1N2C(=O)NCc1ccc([N+](=O)[O-])cc1`: the “hERG current change (%, negative = inhibition) at 10uM” value was 1.06%.
As for `CC1(C)CC(/C=C/c2ccccc2)=Nc2ccccc2N1`, the “hERG current change (%, negative = inhibition) at 10uM” value is -26.6%.
Consider `COc1ccc(OC)c(NC(=O)COC(=O)c2ccc(OC)c(S(=O)(=O)N3CCCC3)c2)c1`, for which the “hERG current change (%, negative = inhibition) at 10uM” value is recorded as 16.9%.
`CC1NC(C)(C)Cc2c1ccc1ccccc21.Cl` (stereo not shown): the “hERG current change (%, negative = inhibition) at 10uM” value was 0.121%.
Next, `COc1ccccc1CNS(=O)(=O)c1ccc2c(c1)CC(C)N2C(=O)C1CC1` (stereo not shown): -5.03%.
